The other results are listed elsewhere or left out.
Columns and labels:
Experiment in all cases: glycan array binding signal (z-score within array); higher = stronger binding
Settings in all cases: glycan notation: IUPAC condensed, linker removed
Fuc(a1-2)Gal = molecular target: Fuc(a1-2)Gal
Procedure, shortened: (§1)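 Glycan array data were curated from 3228 arrays in the Consortium for Functional Glycomics database and kept only where the protein sequence was available. Glycan names were converted to IUPAC-condensed notation, and columns mapping to the same glycan were averaged. The binding signal is a within-array Z-score, averaged across arrays of the same protein sequence at different concentrations or buffers and across linkers. Negative Z-scores can be read as non-binding.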

Fuc(a1-2)Gal(b1-3)GalNAc = molecular target: Fuc(a1-2)Gal(b1-3)GalNAc
Procedure, shortened: as §1

[1] = molecular target: Fuc(a1-2)Gal(b1-3)GalNAc(b1-3)Gal
Procedure, shortened: as §1

[2] = molecular target: Fuc(a1-2)Gal(b1-3)GalNAc(b1-3)Gal(a1-4)Gal(b1-4)Glc
Procedure, shortened: as §1

[3] = molecular target: Fuc(a1-2)Gal(b1-3)GalNAc(b1-4)[Neu5Ac(a2-3)]Gal(b1-4)Glc
Procedure, shortened: as §1

Fuc(a1-2)Gal(b1-3)GlcNAc = molecular target: Fuc(a1-2)Gal(b1-3)GlcNAc
Procedure, shortened: as §1

[4] = molecular target: Fuc(a1-2)Gal(b1-3)GlcNAc(b1-3)Gal(b1-4)Glc
Procedure, shortened: as §1

[5] = molecular target: Fuc(a1-2)Gal(b1-3)[Fuc(a1-4)]GlcNAc
Procedure, shortened: as §1

Fuc(a1-2)Gal(b1-4)Glc = molecular target: Fuc(a1-2)Gal(b1-4)Glc
Procedure, shortened: as §1

Fuc(a1-2)Gal(b1-4)Glc6S = molecular target: Fuc(a1-2)Gal(b1-4)Glc6S
Procedure, shortened: as §1

Fuc(a1-2)Gal(b1-4)GlcNAc = molecular target: Fuc(a1-2)Gal(b1-4)GlcNAc
Procedure, shortened: as §1

[6] = molecular target: Fuc(a1-2)Gal(b1-4)GlcNAc(b1-3)Gal(b1-4)GlcNAc
Procedure, shortened: as §1

[7] = molecular target: Fuc(a1-2)Gal(b1-4)GlcNAc(b1-3)Gal(b1-4)GlcNAc(b1-3)Gal(b1-4)GlcNAc
Procedure, shortened: as §1

[8] = molecular target: Fuc(a1-2)Gal(b1-4)GlcNAc6S
Procedure, shortened: as §1

[9] = molecular target: Fuc(a1-2)Gal(b1-4)[Fuc(a1-3)]GlcNAc
Procedure, shortened: as §1

[10] = molecular target: Fuc(a1-2)Gal(b1-4)[Fuc(a1-3)]GlcNAc(b1-3)Gal(b1-4)[Fuc(a1-3)]GlcNAc
Procedure, shortened: as §1

[11] = molecular target: Fuc(a1-2)Gal(b1-4)[Fuc(a1-3)]GlcNAc(b1-3)Gal(b1-4)[Fuc(a1-3)]GlcNAc(b1-3)Gal(b1-4)[Fuc(a1-3)]GlcNAc
Procedure, shortened: as §1

Fuc(a1-2)Gal6S(b1-4)Glc = molecular target: Fuc(a1-2)Gal6S(b1-4)Glc
Procedure, shortened: as §1

[12] = molecular target: Fuc(a1-2)Gal6S(b1-4)Glc6S
Procedure, shortened: as §1

[13] = molecular target: Fuc(a1-2)Gal6S(b1-4)GlcNAc
Procedure, shortened: as §1

Fuc(a1-2)GlcNAc = molecular target: Fuc(a1-2)GlcNAc
Procedure, shortened: as §1

Fuc(a1-2)[Gal(a1-3)]Gal = molecular target: Fuc(a1-2)[Gal(a1-3)]Gal
Procedure, shortened: as §1

[14] = molecular target: Fuc(a1-2)[Gal(a1-3)]Gal(b1-3)GlcNAc
Procedure, shortened: as §1

[15] = molecular target: Fuc(a1-2)[Gal(a1-3)]Gal(b1-4)Glc
Procedure, shortened: as §1

[16] = molecular target: Fuc(a1-2)[Gal(a1-3)]Gal(b1-4)GlcNAc
Procedure, shortened: as §1

[17] = molecular target: Fuc(a1-2)[Gal(a1-3)]Gal(b1-4)[Fuc(a1-3)]GlcNAc
Procedure, shortened: as §1

[18] = molecular target: Fuc(a1-2)[Gal(a1-4)]Gal(b1-4)GlcNAc
Procedure, shortened: as §1

[19] = molecular target: Fuc(a1-2)[GalNAc(a1-3)]Gal
Procedure, shortened: as §1

[20] = molecular target: Fuc(a1-2)[GalNAc(a1-3)]Gal(b1-3)GlcNAc
Procedure, shortened: as §1

[21] = molecular target: Fuc(a1-2)[GalNAc(a1-3)]Gal(b1-4)Glc
Procedure, shortened: as §1

[22] = molecular target: Fuc(a1-2)[GalNAc(a1-3)]Gal(b1-4)GlcNAc
Procedure, shortened: as §1

[23] = molecular target: Fuc(a1-2)[GalNAc(a1-3)]Gal(b1-4)[Fuc(a1-3)]GlcNAc
Procedure, shortened: as §1

[24] = molecular target: Fuc(a1-2)[GalNAc(a1-4)]Gal(b1-4)GlcNAc
Procedure, shortened: as §1

[25] = molecular target: Fuc(a1-2)[GalNAc(b1-3)]Gal
Procedure, shortened: as §1

Fuc(a1-3)GlcNAc = molecular target: Fuc(a1-3)GlcNAc
Procedure, shortened: as §1

[26] = molecular target: Fuc(a1-3)[Gal(b1-4)]Glc6S
Procedure, shortened: as §1

[27] = molecular target: Fuc(a1-3)[Gal(b1-4)]GlcNAc
Procedure, shortened: as §1

[28] = molecular target: Fuc(a1-3)[Gal(b1-4)]GlcNAc(b1-2)Man(a1-3)[Fuc(a1-3)[Gal(b1-4)]GlcNAc(b1-2)Man(a1-6)]Man(b1-4)GlcNAc(b1-4)GlcNAc
Procedure, shortened: as §1

[29] = molecular target: Fuc(a1-3)[Gal(b1-4)]GlcNAc(b1-2)Man(a1-6)[Gal(b1-4)GlcNAc(b1-2)Man(a1-3)]Man(b1-4)GlcNAc(b1-4)GlcNAc
Procedure, shortened: as §1

[30] = molecular target: Fuc(a1-3)[Gal(b1-4)]GlcNAc(b1-3)Gal(b1-3)[Fuc(a1-4)]GlcNAc
Procedure, shortened: as §1

[31] = molecular target: Fuc(a1-3)[Gal(b1-4)]GlcNAc(b1-3)Gal(b1-4)[Fuc(a1-3)]GlcNAc
Procedure, shortened: as §1

[32] = molecular target: Fuc(a1-3)[Gal(b1-4)]GlcNAc(b1-3)Gal(b1-4)[Fuc(a1-3)]GlcNAc(b1-3)Gal(b1-4)[Fuc(a1-3)]GlcNAc
Procedure, shortened: as §1

[33] = molecular target: Fuc(a1-3)[Gal(b1-4)]GlcNAc(b1-4)Gal(b1-4)[Fuc(a1-3)]GlcNAc
Procedure, shortened: as §1

[34] = molecular target: Fuc(a1-3)[Gal(b1-4)]GlcNAc(b1-4)Gal(b1-4)[Fuc(a1-3)]GlcNAc(b1-4)Gal(b1-4)[Fuc(a1-3)]GlcNAc
Procedure, shortened: as §1

[35] = molecular target: Fuc(a1-3)[Gal(b1-4)]GlcNAc6S
Procedure, shortened: as §1

B1: CD83 (Homo sapiens) (protein)
chain: MSRGLQLLLLSCAYSLAPATPEVKVACSEDVDLPCTAPWDPQVPYTVSWVKLLEGGEERMETPQEDHLRGQHYHQKGQNGSFDAPNERPYSLKIRNTTSCNSGTYRCTLQDPDGQRNLSGKVILRVTGCPAQRKEETFKKYRAETSEQKLISEEDLSRGSDDDDKAEPRGP
How did the “glycan array binding signal (z-score)” value (Fuc(a1-2)Gal) turn out when B1 was run?
The value was -0.332.

And the “glycan array binding signal (z-score)” value (Fuc(a1-2)Gal(b1-3)GalNAc)?
The value was -0.357.

What about the “glycan array binding signal (z-score)” value [1] of the same binder?
The value was -0.068.

What about the “glycan array binding signal (z-score)” value [2] of the same binder?
Its value is -0.048.

What about the “glycan array binding signal (z-score)” value [3] of the same binder?
The value was -0.21.

What about the “glycan array binding signal (z-score)” value (Fuc(a1-2)Gal(b1-3)GlcNAc) of the same binder?
The value was -0.157.

And the “glycan array binding signal (z-score)” value [4]?
The value was -0.152.

What about the “glycan array binding signal (z-score)” value [5] of the same binder?
The value was -0.388.

And the “glycan array binding signal (z-score)” value (Fuc(a1-2)Gal(b1-4)Glc)?
Its value is -0.222.

What about the “glycan array binding signal (z-score)” value (Fuc(a1-2)Gal(b1-4)Glc6S) of the same binder?
The value was -0.164.

What about the “glycan array binding signal (z-score)” value (Fuc(a1-2)Gal(b1-4)GlcNAc) of the same binder?
Its value is -0.181.

And the “glycan array binding signal (z-score)” value [6]?
The value was -0.172.

What about the “glycan array binding signal (z-score)” value [7] of the same binder?
Its value is -0.22.

What about the “glycan array binding signal (z-score)” value [8] of the same binder?
Its value is -0.171.

What about the “glycan array binding signal (z-score)” value [9] of the same binder?
Its value is -0.286.

What about the “glycan array binding signal (z-score)” value [10] of the same binder?
Its value is -0.099.

And the “glycan array binding signal (z-score)” value [11]?
The value was -0.079.

And the “glycan array binding signal (z-score)” value (Fuc(a1-2)Gal6S(b1-4)Glc)?
Its value is 0.356.

What about the “glycan array binding signal (z-score)” value [12] of the same binder?
The value was -0.062.

And the “glycan array binding signal (z-score)” value [13]?
The value was -0.208.

And the “glycan array binding signal (z-score)” value (Fuc(a1-2)GlcNAc)?
The value was -0.045.

And the “glycan array binding signal (z-score)” value (Fuc(a1-2)[Gal(a1-3)]Gal)?
Its value is -0.214.

What about the “glycan array binding signal (z-score)” value [14] of the same binder?
Its value is -0.151.

What about the “glycan array binding signal (z-score)” value [15] of the same binder?
The value was -0.046.

What about the “glycan array binding signal (z-score)” value [16] of the same binder?
Its value is -0.407.

And the “glycan array binding signal (z-score)” value [17]?
Its value is 1.45.

What about the “glycan array binding signal (z-score)” value [18] of the same binder?
Its value is -0.454.

And the “glycan array binding signal (z-score)” value [19]?
Its value is -0.208.

And the “glycan array binding signal (z-score)” value [20]?
Its value is -0.222.

And the “glycan array binding signal (z-score)” value [21]?
Its value is -0.276.

What about the “glycan array binding signal (z-score)” value [22] of the same binder?
Its value is -0.25.

And the “glycan array binding signal (z-score)” value [23]?
The value was 0.518.

And the “glycan array binding signal (z-score)” value [24]?
The value was -0.343.

And the “glycan array binding signal (z-score)” value [25]?
Its value is -0.195.

And the “glycan array binding signal (z-score)” value (Fuc(a1-3)GlcNAc)?
Its value is -0.343.

What about the “glycan array binding signal (z-score)” value [26] of the same binder?
The value was -0.101.

And the “glycan array binding signal (z-score)” value [27]?
The value was -0.318.

What about the “glycan array binding signal (z-score)” value [28] of the same binder?
Its value is -0.311.

And the “glycan array binding signal (z-score)” value [29]?
Its value is -0.075.

And the “glycan array binding signal (z-score)” value [30]?
Its value is 0.334.

And the “glycan array binding signal (z-score)” value [31]?
Its value is 1.98.

And the “glycan array binding signal (z-score)” value [32]?
The value was -0.095.

What about the “glycan array binding signal (z-score)” value [33] of the same binder?
The value was -0.138.

What about the “glycan array binding signal (z-score)” value [34] of the same binder?
Its value is -0.087.

And the “glycan array binding signal (z-score)” value [35]?
Its value is -0.026.

From the supplement of paper PMC8728848
